Measured values reported in PubChem BioAssay AID1508642 (National Center for Advancing Translational Sciences (NCATS), 2021).
About 200 (0.47%) of roughly 43,000 compounds were called active. Inconclusive results, whose numbers are uncertain, are shown with a selection of clear calls. Calls come from the whole dose curve; as a rule, active = well fitted cell-killing curve with a large enough effect; inconclusive = small, poorly fitted or top-dose-only effect, or effect the other way; inactive = flat fitted curve, though single readings scatter. A potency beside an inconclusive call is a rough fit, not a confirmed value.

experiment: Cell viability qHTS assay in S16 Pmp22-F2sN cells; conditions: S16 Pmp22-F2sN Schwann cells (luciferase reporters placed in the Pmp22 gene) viability, CellTiter-Glo, 24 h; series mostly up to 57.5 µM; note: nearly all actives have a fitted effect of over 65% in size
How it was run: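 Luminescence from CellTiter-Glo, read by CCD camera after a 15 min room-temperature incubation, served as the viability signal. Reporter Schwann cells (S16 Pmp22-F2sN) had been treated with pin-transferred compounds for 24 h at 37C.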
Potency is the fitted concentration of half-maximal effect; tags give direction and shape of the fitted curve.

Row | SMILES | Potency
1 | CCOc1ccc(NC(=O)NCCN2CCN(c3cc(Cl)ccc3C)CC2)cc1 | inactive
2 | CCOC(=O)c1ccccc1NC(=O)CN(c1ccccc1)S(=O)(=O)c1ccc(OCC)cc1 | inconclusive: 31.6 µM [rising, partial curve, poor fit]
3 | Cc1ccc(C)c(N2CCN(C(=O)C3CCC(CNS(=O)(=O)c4cccs4)CC3)CC2)c1 (stereo not drawn) | inconclusive: 14.1 µM [cytotoxic, partial curve, poor fit]
4 | CCc1cccc(NC(=O)Cn2c(=O)n(CCCCCC(=O)NCc3ccc(F)cc3)c(=O)c3sccc32)c1 | inconclusive: 35.5 µM [cytotoxic, single point]
5 | CC1CCN(S(=O)(=O)c2ccc3nc(NCc4ccc(N(C)C)cc4)ccc3c2)CC1 | inconclusive: 39.8 µM [cytotoxic, single point]
6 | CCn1c(CN2CCCCC2)nc2cc(NC(=O)COc3ccccc3C(C)(C)C)ccc21 | inactive
7 | CCn1c2ccccc2c2cc(CN3CCN(Cc4ccc(OC)c(OC)c4)CC3)ccc21 | inconclusive: 39.8 µM [cytotoxic, single point]
8 | CCOc1ccc(CC(=O)NCCS(=O)(=O)N2CCN(c3ccc(OC)cc3)CC2)cc1 | inactive
9 | CCCn1c(/C=C/c2ccccc2)nc2ccccc21 | inactive
10 | COc1ccc(NC(=O)c2c(N)c(C(=O)c3ccc(OC)cc3)n3ccccc23)cc1 | inconclusive: 11.2 µM [cytotoxic, partial curve]
11 | COc1ccc(CNC(=O)CSCc2cnn(-c3ccccc3)c2-n2cccc2)cc1OC | inconclusive: 39.8 µM [cytotoxic, single point]
12 | Cc1ccccc1Nc1nnc(-c2ccc(C)c(S(=O)(=O)N3CCN(C)CC3)c2)c2ccccc12 | inconclusive: 22.4 µM [cytotoxic, single point]
13 | COc1ccc(C(=O)NCC(c2cccnc2)N2CCN(c3ccccc3OC)CC2)cc1 (stereo not drawn) | inactive
14 | COc1ccc(Nc2ncc(C(=O)N3CCN(c4ccc(OC)cc4)CC3)c3ccccc23)cc1 | inactive
15 | CN(C)c1ccc(CN2CCc3nc(N4CCN(c5ccccn5)CC4)ncc3C2)cc1 | inconclusive: 35.5 µM [cytotoxic, single point]
16 | O=C(Nc1cccc(Cl)c1)C1CCN(c2nc3ccccc3nc2C(F)(F)F)CC1 | inconclusive: 22.4 µM [cytotoxic, single point]
17 | COc1cccc2c1cc1c(=O)n(CC(=O)N3CCCCC3)nc(C)n12 | inactive
18 | CCC(C)(C)NC(=O)C1CCC(CNS(=O)(=O)c2ccc3c(c2)CC(C)N3C(C)=O)CC1 (stereo not drawn) | inconclusive: 20 µM [cytotoxic, single point]
